82 molecules from the supplement of paper PMC6135742 can be followed below.

Several values for one entry are separate records, joined by “and”; a condition that tells them apart may be missing. Equal entries are not always repeated. Structures can show the parent of a compound that is named as a salt. ± gives the standard deviation of the averaged measurements. The full ranking holds about 2,600 compounds; the median of “total cell number (DAPI+ nuclei) relative to DMSO vehicle control” is about -1.4, and the lowest 2% start at about -23. This is one part of the list.

This assay has as its system jimpy (Plp1 jimpy) mouse iPSC-derived oligodendrocyte progenitor cells. Briefly: total cell number (DAPI+ nuclei) relative to DMSO vehicle control (SDs above negative control mean); higher = more surviving cells. Conditions: 10 µM; 3 days.
As for `COC(=O)Nc1nc2cc(C(=O)c3cccs3)ccc2[nH]1` [Nocodazole], the total cell number was -5.46 ± 0.78.
Under `CC(=Cc1ccc(C(=O)O)cc1)c1ccc2c(c1)C(C)(C)CCC2(C)C` stands -1.34; under `COc1cc(Br)c(Nc2nc(-c3c(C)nc4ncccn34)cs2)c(Br)c1`, -13.
Then `O=C(O)CCCCCCCC(=O)O` [Azelaic acid], with -1.13.
In the case of `OCCN1CCN(CC/C=C2/c3ccccc3Sc3ccc(C(F)(F)F)cc32)CC1` [cis-(Z)-Flupenthixol dihydrochloride], the total cell number was -7.96.
Then `COc1cc2ncnc(Sc3nnc(C)s3)c2cc1OC`, with -13.4; and `Cc1cn[nH]c1` [4-Methylpyrazole hydrochloride], with 0.966.
Under `Cc1ccc(S(=O)(=O)c2ccc([N+](=O)[O-])o2)cc1` stands -16.4; under `OC(Cn1cncn1)(Cn1cncn1)c1ccc(F)cc1F` [Fluconazole], 4.46; under `NCCc1c[nH]cn1` [Histamine 2HCl], -1.12.
Consider `NCCc1c[nH]cn1` [Histamine dihydrochloride], for which the total cell number is -0.826.
`CC[N+](C)(C)c1cccc(O)c1` [Edrophonium chloride]: the total cell number was -1.85.
Under `Nc1[nH]cnc2ncnc1-2` [Adenine HCl] stands -0.0804; under `C[C@@H](NCCCc1cccc(C(F)(F)F)c1)c1cccc2ccccc12` [Cinacalcet HCl], -17.8.
Under `CC(=O)Nc1cccc(-n2c(=O)n(C3CC3)c(=O)c3c(Nc4ccc(I)cc4F)n(C)c(=O)c(C)c32)c1` stands -7.48.
Under `C#CC(N)CCC(=O)O` (configuration not stated) [gamma-Acetylinic GABA] stands -0.506.
On to `COc1c(C)c(C(=O)c2ccc(N)c(C(=O)O)c2)n2ccccc12`, for which the total cell number is 0.936.
Then `COc1ccc(-c2ccc3c(N4CCOC[C@@H]4C)nc(N4CCOC[C@@H]4C)nc3n2)cc1CO`, with -13.1; and `COc1cc(C(=O)OCCCN2CCCN(CCCOC(=O)c3cc(OC)c(OC)c(OC)c3)CC2)cc(OC)c1OC` [Dilazep hydrochloride], with -5.8.
In the case of `N=C(NC(=O)c1nc(Cl)c(N)nc1N)Nc1ccccc1` [Phenamil methanesulfonate], the total cell number is -2.73.
As for `COc1ccc([C@@H]2CC(=O)c3c(O)cc(O)cc3O2)cc1O` [Hesperetin], the total cell number was -0.778.
Then `CN(C)CCCN1c2ccccc2Sc2ccc(C(F)(F)F)cc21` [Triflupromazine hydrochloride], with -8.64; and `O=C1NC(=O)c2c1c(-c1ccccc1)cc1[nH]c3ccc(O)cc3c21`, with -9.61; and `Nc1c(CC(=O)O)cccc1C(=O)c1ccccc1` [Amfenac Sodium Monohydrate], with 2.67.
Regarding `Oc1cc(O)c2c(c1)O[C@H](c1ccc(O)c(O)c1)[C@@H](O)C2` [(+)-Catechin Hydrate], the total cell number is -0.819.
Then `CC(=O)Oc1ccccc1C(=O)Nc1ncc([N+](=O)[O-])s1` [Nitazoxanide], with -0.866.
Under `NC(=O)c1ccc(N(C(N)=O)c2c(F)cccc2F)nc1-c1ccc(F)cc1F` stands 0.454.
In the case of `C[N+]1(C)CCC(OC(=O)C(c2ccccc2)c2ccccc2)CC1`, the total cell number is -0.239.
Under `C[N+]1(C)CCC(OC(=O)C(c2ccccc2)c2ccccc2)CC1` [4-DAMP methiodide] stands 2.32; under `CCCc1cc(C)[nH]c(=O)c1CNC(=O)c1cc(-c2ccc(N3CCN(C(C)C)CC3)nc2)cc2c1cnn2C(C)C`, -13.3; under `CC(N/C(=N\C#N)Nc1ccncc1)C(C)(C)C` (configuration not stated) [Pinacidil], 0.255.
Then `CCN(CC)CCOC(=O)C1(C2CCCCC2)CCCCC1` [Dicyclomine hydrochloride], with 1.75; and `O=c1cc(-c2ccccc2)oc2c(O)c(O)ccc12` [7,8-Dihydroxyflavone hydrate], with 0.407; and `CN1CCN(C2=Nc3ccccc3Oc3ccc(Cl)cc32)CC1` [Loxapine succinate], with -2.84.
In the case of `CN1CCN(C2=Nc3ccccc3Oc3ccc(Cl)cc32)CC1` [Loxapine Succinate], the total cell number was -4.24.
Then `CC(C)CC(N)=O` [Isovaleramide], with 0.518.
Then `COc1c2occc2cc2ccc(=O)oc12` [Methoxsalen], with -1.76; and `O=C(Nc1cccc(Cl)c1)c1ccccn1`, with -2.66.
Turning to `N#Cc1ccc(C(c2ccc(C#N)cc2)n2cncn2)cc1` [Letrozole], the total cell number is -0.0169.
In turn, `CN(C)C(=O)Nc1cccc(-c2ccc(N(C)C)cc2)c1` [Atglistatin] returned a total cell number of 4.29.
Under `Clc1ccc(CCC(Cn2ccnc2)Sc2c(Cl)cccc2Cl)cc1` (configuration not stated) [Butoconazole nitrate] stands 1.6.
Under `C[C@@]1(C(=O)Nc2ccc(F)nc2)CCCN1c1nc(Nc2cc(C3CC3)n[nH]2)c2cccn2n1` stands -24.7; under `Cc1cc2c(cc1CC(=O)c1sccc1S(=O)(=O)Nc1onc(C)c1Cl)OCO2` [Sitaxentan sodium], 0.886; under `C[C@@H]1C[C@H]2[C@@H]3C[C@H](F)C4=CC(=O)C=C[C@]4(C)[C@@]3(F)[C@@H](O)C[C@]2(C)[C@@]1(O)C(=O)CO` [Flumethasone], 4.79.
Then `O=C(NC[C@H]1CN(c2ccc(N3CCOCC3=O)cc2)C(=O)O1)c1ccc(Cl)s1` [Rivaroxaban], with -1.17; and `CC[C@H](/C=C/[C@@H](C)[C@H]1CC[C@H]2[C@@H]3CC=C4C[C@@H](O)CC[C@]4(C)[C@H]3CC[C@]12C)C(C)C` [Stigmasterol], with -0.837.
On to `O=C(O)c1cn(-c2ccc(F)cc2)c2cc(N3CCNCC3)c(F)cc2c1=O` [Sarafloxacin HCl], for which the total cell number is 1.78.
As to `c1ccc(NCc2ccc(CNc3ccccn3)cc2)nc1`, the total cell number is -3.52.
Under `NCCC[C@](N)(C(=O)O)C(F)F` (racemic) [DL-alpha-Difluoromethylornithine hydrochloride] stands -1.15; under `Cc1nnc(C(=O)NC(C)(C)c2nc(C(=O)NCc3ccc(F)cc3)c(O)c(=O)n2C)o1` [Raltegravir (MK-0518)], 20.5; under `CS(=O)(=O)N1CCc2c(-c3cnc(N)nc3)nc(N3CCOCC3)nc21`, -9.93.
For `Cn1ccc2cc(NC(=O)Nc3cccnc3)ccc21`, the total cell number is -2.19.
In turn, `CC(=O)[C@]1(O)Cc2c(O)c3c(c(O)c2[C@@H](O[C@H]2C[C@H](N)[C@H](O)[C@H](C)O2)C1)C(=O)c1ccccc1C3=O` [Idarubicin HCl] gave a total cell number of 38.4.
Then `CC(=O)[C@]1(O)Cc2c(O)c3c(c(O)c2[C@@H](O[C@H]2C[C@H](N)[C@H](O)[C@H](C)O2)C1)C(=O)c1ccccc1C3=O` [Idarubicin], with 9.25.
`Cc1nc(=O)c2cc(CN(C)c3ccc(C(=O)N[C@@H](CCC(=O)O)C(=O)O)s3)ccc2[nH]1` [Raltitrexed] came in with a total cell number of 0.684.
Under `CN1CCN(CCCN2c3ccccc3Sc3ccc(Cl)cc32)CC1` [Prochlorperazine dimaleate] stands -10.5; under `CC(/C=C1\SC(=S)N(CC(=O)O)C1=O)=C\c1ccccc1` [Epalrestat], -1.67 ± 0.58; under `O=C1c2ccccc2C(=O)c2c1ccc(O)c2O` [Alizarin], 0.306.
Under `N[C@@H]1[C@H]2CN(c3nc4c(cc3F)c(=O)c(C(=O)O)cn4-c3ccc(F)cc3F)C[C@@H]12` [Trovafloxacin mesylate] stands 0.819.
On to `C[C@H](CCC(=O)O)[C@H]1CC[C@H]2[C@@H]3[C@H](O)C[C@@H]4C[C@H](O)CC[C@]4(C)[C@H]3CC[C@]12C` [Chenodeoxycholic Acid], for which the total cell number is -0.33.
Then `O=C(/C=C/c1ccc(O)c(O)c1)OCCc1ccccc1` [Caffeic acid phenethyl ester], with -9.73.
Under `O=C(/C=C/c1ccc(O)c(O)c1)OCCc1ccccc1` [Caffeic Acid Phenethyl Ester] stands -11.9; under `C=CC(=O)Nc1cccc(Oc2nc(Nc3ccc(N4CCN(C)CC4)cc3OC)ncc2Cl)c1`, -24.9.
Turning to `COc1ccc([C@@H]2CC(=O)c3c(O)cc(O[C@@H]4O[C@H](CO)[C@@H](O)[C@H](O)[C@H]4O[C@@H]4O[C@@H](C)[C@H](O)[C@@H](O)[C@H]4O)cc3O2)cc1O` [Neohesperidin], the total cell number was -0.222.
As to `CC(=O)OCC(CCn1cnc2cnc(N)nc21)COC(C)=O` [Famciclovir], the total cell number was -0.473 ± 1.5.
In the case of `NNc1nncc2ccccc12` [Hydralazine hydrochloride], the total cell number is -0.483.
Turning to `NNc1nncc2ccccc12` [Hydralazine HCl], the total cell number was -0.661.
Turning to `CC[C@H](C)C(=O)O[C@H]1CCC=C2C=C[C@H](C)[C@H](CC[C@@H]3C[C@@H](O)CC(=O)O3)[C@H]21` [Mevastatin], the total cell number is -6.13 ± 1.6.
Under `Nc1cc(C(Cl)=C(Cl)Cl)c(S(N)(=O)=O)cc1S(N)(=O)=O` [Clorsulon] stands -0.558; under `Nc1nc2ccc(Cl)cc2c2nc(-c3ccco3)nn12`, 0.464; under `CCC(C)N(C)C(=O)c1cc2ccccc2c(-c2ccccc2Cl)n1` (configuration not stated), -1.57.
Then `C[C@@H]1CCN(C(=O)CC#N)C[C@@H]1N(C)c1ncnc2[nH]ccc12`, with -2.49 and -3.98.
Then `CCOC(=O)Nc1cc(-c2ccc(C)c(NS(C)(=O)=O)c2)nn2c(C)nnc12` [Bromosporine], with -13.2.
For `Cc1cc2c(F)c(Oc3ncnn4cc(OC[C@@H](C)OC(=O)[C@H](C)N)c(C)c34)ccc2[nH]1`, the total cell number was -4.11.
Turning to `O=c1[nH]c(=O)n(C2CCCO2)cc1F` (configuration not stated) [Tegafur], the total cell number is -9.13.
Then `COc1ccc([C@]2(C#N)CC[C@@H](C(=O)O)CC2)cc1OC1CCCC1` [Cilomilast], with -0.987; and `Nc1ncnc2c1c(-c1ccc(Oc3ccccc3)cc1)cn2C1CCCC1`, with -5.56.
Then `COCC[n+]1c2c(n(Cc3cnccn3)c1C)C(=O)c1ccccc1C2=O` [YM155 (Sepantronium Bromide)], with -27.7; and `O=C(NCCO)c1cccc(-c2cc(Nc3ccc(OC(F)(F)F)cc3)ncn2)c1`, with -2.65; and `O=S(=O)(O)NC1CCCCC1` [Cyclamic  acid], with -1.78.
Then `O=C1c2ccc(Nc3ccc(F)cc3F)cc2CCc2ccc(OC[C@H](O)CO)cc21` [Skepinone-L], with -0.735.
`NC(=O)C(c1ccccc1)(c1ccccc1)[C@@H]1CCN(CCc2ccc3c(c2)CCO3)C1` [Darifenacin HBr]: the total cell number was -6.77.
